Reference: patent publication US12091423B2, “Substituted 3,4,12,12a-tetrahydro-1H-[1,4]oxazino[3,4-c]pyrido[2,1-f][1,2,4]triazine-6,8-dione, pharmaceutical composition, method for the production and use thereof” (VIRIOM, INC., priority 2019, dated 2024)
pEC50: −log10 of the molar value.

Tested on: influenza A/Aichi/2/69 (H3N2)
Assay: microbe, parasite or virus in culture
Format: cell-based
Settings: H3N2, MDCK, read-out: EC50, A/Aichi/2/68 (H3N2)

`O=C1c2c(O)c(=O)ccn2N([C@@H]2c3ccc(F)c(F)c3CSc3ccsc32)[C@@H]2COCCN12` [1.3.2, (12aR)-7-hydroxy-12-[(10R)-6,7-difluoro-5,10-dihydrothieno[3,2-c][2]benzothiepin-10-yl]-3,4,12,12a-tetrahydro-1H-[1,4]oxazino[3,4-c]pyrido[2,1-f][1,2,4]triazine-6,8-dione] showed a pEC50 of 9.64.
